Experimental data: PubChem BioAssay AID686978 (National Center for Advancing Translational Sciences (NCATS), 2013)
Among all 420,000 compounds or so, about 64,000 (15%) were called active. This list was built around the results that the source calls inconclusive (neither active nor inactive); the mix of calls is not that of the screen. Calls follow the shape of the dose curve; as a rule, active = well fitted inhibition curve with a large enough effect; inconclusive = small, poorly fitted or top-dose-only effect; inactive = flat fitted curve, though single readings scatter. Potencies of inconclusive entries are left out as doubtful fits.

Assay: qHTS for Inhibitors of human tyrosyl-DNA phosphodiesterase 1 (TDP1): qHTS in cells in absence of CPT; also: nearly all actives have a fitted effect of over 55% in size
Conditions: DT40 Tdp1-/- hTDP1 cells, no CPT, ATP luminescence, 48 h; activity change, negative = growth inhibition: at 46.2 µM (top of the series) unless noted
Procedure, shortened: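 Camptothecin absent (DMSO only). Human TDP1-complemented DT40 knockout cells, 400 cells/well, 37 °C for minimum 48 hr; ATP measured via CellTiter-Glo, 30 min dark incubation, luminescence.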
% is scaled to controls: 0 for no effect and ±100 for the full control effect; potency is read from the fitted curve at half-maximal effect; tags tell the direction and shape of the fitted curve.

Row | Compound | Potency | activity change, negative = growth inhibition
1 | C/C(=N\N=C(c1ccccc1)c1ccccc1)c1ccco1 | inconclusive [inhibitor, single point] | –
2 | CN(CC(=O)O)c1ccc(/C=C2\C=Cc3ccccc32)cc1 | inconclusive [inhibitor, single point] | inconclusive: -30.2% [inhibitor]
3 | NC(=NCCc1ccc(Cl)cc1)NS(=O)(=O)c1ccc(F)cc1 | inconclusive [inhibitor, single point] | –
4 | COCCN(CC(=O)NC1CCCCC1)C(=O)/C=C/C(=O)c1ccc(OC)cc1O | active: 2.31 µM | –
5 | CCOc1cc(N2CCOCC2)c(OCC)cc1NC(=O)c1ccco1 | active: 11.6 µM | –
6 | COc1cccc(NC(=O)Cn2c(=O)c3c(ncn3Cc3ccccc3)n(Cc3ccccc3)c2=O)c1 | – | inconclusive: -34.6% [inhibitor]
7 | Cn1ccnc1CN1CCN(C(=O)c2cc(COc3ccc(F)c(F)c3)on2)CC1 | inconclusive [inhibitor, partial curve, poor fit] | –
8 | CN(C(=O)c1ccc(-c2nn(C)c(=O)c3ccccc23)cc1)c1ccccc1 | active: 16.4 µM | –
9 | O=C(CSc1nncn1-c1ccccc1)Nc1ccc(N2CCOCC2)cc1 | active: 13 µM | –
10 | CC(C(=O)c1ccc(Br)cc1)[n+]1cccc(NC(=O)c2ccccc2)c1 (stereo not given) | inconclusive [inhibitor, single point] | –
11 | CCS(=O)(=O)c1ccc2oc(SCC(=O)c3c(N)n(C4CC4)c(=O)[nH]c3=O)nc2c1 | inactive | –
12 | COc1cc2ccccc2cc1C(=O)NCc1ccncc1 | inactive | –
13 | COc1c(S(=O)(=O)N2CCCC2)ccc(Cl)c1Cl | inconclusive [inhibitor, partial curve, poor fit] | –
14 | COc1cccc(CN(C)C(=O)c2cccc(S(=O)(=O)N3CCN(Cc4ccccc4)CC3)c2)c1OC | active: 16.4 µM | –
15 | Cc1cccc(OCC(=O)Nc2ccccc2F)c1 | inactive | –
16 | Cc1ccc(/C=C/S(=O)(=O)NCCC(=O)NCc2ccc(F)cc2)cc1 | inconclusive [inhibitor, single point] | –
17 | CCOC(=O)c1cccc(NC(=O)c2ccc3c(c2)nnn3CC)c1 | inconclusive [inhibitor, single point] | –
18 | Cc1ccc(C(C)C)c(OCC(=O)NNC(=O)C(C(C)C)N2C(=O)c3ccccc3C2=O)c1 (stereo not given) | inconclusive [inhibitor, full curve, poor fit] | –
19 | CCOC(=O)N1CCN(C(=S)NC(=O)c2cncc(Br)c2)CC1 | inconclusive [inhibitor, single point] | –
